Assay results as given in PubChem BioAssay AID488969 (Vanderbilt High Throughput Screening Facility, 2010).
Whole data set: some 110,000 compounds, median “z-score” near -0.1, cut for the highest 2% near 2. Some of the results follow. Active and inactive are the calls of the source.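 The calls were made as follows: active = z-score in the third read window above 3 or below -3; inactive = the rest.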

target: Metabotropic glutamate receptor 8 (Rattus norvegicus) (UniProt P70579); test: rat mGluR8 modulators via GIRK flux, primary screen, cell-based, thallium flux, HTS (AID 488969); conditions: HEK293 rat mGluR8, GIRK (G protein-gated inwardly rectifying potassium channel) thallium flux, FluoZin2; at 10 µM; stronger effect = higher value; submaximal glutamate (EC20) added with thallium
Sequence of UniProt P70579 (P70579 whole entry, looked up): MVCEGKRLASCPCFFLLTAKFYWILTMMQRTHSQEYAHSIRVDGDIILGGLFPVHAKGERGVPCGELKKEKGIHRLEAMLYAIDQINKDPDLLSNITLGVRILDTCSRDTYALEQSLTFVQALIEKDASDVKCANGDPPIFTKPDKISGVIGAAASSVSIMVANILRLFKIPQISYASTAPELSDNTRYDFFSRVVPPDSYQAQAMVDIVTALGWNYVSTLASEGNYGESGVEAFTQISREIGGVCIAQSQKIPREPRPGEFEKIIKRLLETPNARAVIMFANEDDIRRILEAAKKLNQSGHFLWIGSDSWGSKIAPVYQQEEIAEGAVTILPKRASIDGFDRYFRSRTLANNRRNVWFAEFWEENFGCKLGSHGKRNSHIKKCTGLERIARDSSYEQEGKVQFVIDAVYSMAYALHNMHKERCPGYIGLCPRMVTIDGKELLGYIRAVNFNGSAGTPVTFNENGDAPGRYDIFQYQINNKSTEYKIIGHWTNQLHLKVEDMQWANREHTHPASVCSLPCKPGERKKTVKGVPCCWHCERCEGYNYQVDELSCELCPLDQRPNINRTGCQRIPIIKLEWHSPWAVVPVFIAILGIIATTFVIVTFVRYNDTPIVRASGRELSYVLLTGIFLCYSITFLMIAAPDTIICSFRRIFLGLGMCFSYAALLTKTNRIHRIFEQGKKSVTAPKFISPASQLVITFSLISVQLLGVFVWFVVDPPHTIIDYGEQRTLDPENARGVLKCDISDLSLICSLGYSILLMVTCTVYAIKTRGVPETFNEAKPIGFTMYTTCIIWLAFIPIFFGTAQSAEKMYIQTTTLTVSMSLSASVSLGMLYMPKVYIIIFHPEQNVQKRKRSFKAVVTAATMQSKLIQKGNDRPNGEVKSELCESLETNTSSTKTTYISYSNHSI

SMILES	z-score
COc1ccc(/C(C)=C2/SC(=S)N(CCC(=O)O)C2=O)cc1	-0.343
CC1(C)CC(=O)C(C2=NC(C)(C)Cc3ccccc32)=C(O)C1	0.648
C(=N\n1cnnc1)/c1ccc(OCc2cccc3ccccc23)cc1	-0.133
CN1Cc2cc(C(=O)c3ccccc3O)cnc2NC1=O	-0.205
CCN1CCN(CCCNC(=O)c2csc3c2CCCCC3)CC1	-0.63
CCOc1ccc(N2C(=O)CN=C2Nc2ccccc2F)cc1	-0.971
O=C(CCC(=O)NC1CCCCCCC1)Nc1nnc(C(F)(F)F)s1	-0.00846
Clc1cccc(-c2nc(NCc3cccnc3)c3ccccc3n2)c1	-0.233
Cc1cc(/C=C(\C#N)C(=O)NCc2ccco2)c(C)n1C1CCCC1	-0.408
O=C(c1c[nH]c(C(=O)C(Cl)(Cl)Cl)c1)c1ccccc1Cl	-0.0667
NS(=O)(=O)c1cccc(NC(=O)CCSc2ccccc2Cl)c1	-0.225
C/C=C/Cn1c(SCCCc2ccccc2)nc2c1c(=O)[nH]c(=O)n2C	-0.411
Cn1c(SCC(=O)OC2CCCCC2)nnc1-c1ccco1	-0.0323
Cc1ccc(NC2=Nc3ccccc3CS2)cc1	0.172
N/C(=N\OC(=O)CCC1CCCC1)c1cccnc1	-0.0306
FC(F)(F)c1cccc(Cn2nnnc2-c2cc(Cl)cc(Cl)c2)c1	-0.134
O=C1CCCCCN1Cc1ccccc1	-0.141
Cn1c(SCC(=O)Nc2cccc(O)c2)nnc1-c1ccc(S(=O)(=O)N2CCOCC2)cc1	0.0673
CC(NC(=O)CSc1nnc(COc2ccccc2)o1)c1ccccc1 (stereo unspecified)	-0.301
O=C(NC1CCCC1)C1CCC(=O)N1CCc1ccccc1 (stereo unspecified)	-0.253
CC(C)OC(=O)CN1C(=O)C(=O)c2ccccc21	0.116
CC(C)CC(=O)Nc1cccc(NC(=O)c2ccccc2Cl)c1	-0.137
COc1ccc(/C=C2\N=C(C)N(c3ccc(C(=O)O)cc3)C2=O)cc1OC	0.284

SMILES	z-score
COC(=O)c1ccccc1NC(=O)c1cn(-c2ccc(C)c(C)c2)c(=O)c2ccccc12	0.0214
CC(C)=N/N=C(\c1cccc([N+](=O)[O-])c1)C12CN3CN(CN(C3)C1)C2	-0.114
Cc1cc(C(=O)N=Nc2c(O)n(C(C)C)c3ccccc23)n[nH]1	0.232
CC1Cn2c(CCc3ccccc3)nnc2S1 (stereo unspecified)	-0.107
CCCNC(=O)c1ccccc1C(=O)NCCC	-0.0646
CCc1cc2c(NCc3ccco3)ncnc2s1	-0.444
Cc1cc(C)c(C)c(S(=O)(=O)N2CCN(CC(=O)Nc3sccc3C#N)CC2)c1C	-0.19
O=C1c2cccc3c([N+](=O)[O-])ccc(c23)C(=O)N1c1ccc(Cl)cn1	-0.417
CCCCn1c(CCNC(=O)CCC)nc2ccccc21	-0.354
COc1ccccc1C1CC(=O)n2c(nc(-c3ccccc3)c2-c2ccccc2)S1 (stereo unspecified)	0.45
Fc1ccccc1NC(=S)NNc1ncc(C(F)(F)F)cc1Cl	1.37
CNC(=O)N(O)C1N(NC(=O)Nc2cccc3ccccc23)C(=S)SC1(C)C (stereo unspecified)	0.145
CC(=O)Nc1cccc(Oc2nc(C)cc(C)c2C#N)c1	-0.395
CCOC(=S)SCC(=O)N1CCc2ccccc2C1C1C(=O)CC(C)(C)CC1=O (stereo unspecified)	0.0761
Cc1cc(Nc2ccccc2)n(C(=O)c2ccccc2)n1	-0.16
CC(Nc1ccc(Br)cn1)c1cc(Cl)ccc1O (stereo unspecified)	active: -3.53
O=C(c1cc2ccccc2o1)N1CCN=C1SCc1cccc(F)c1	-0.16
CCOC(=O)c1c(Nc2ccc(Cl)cc2)sc(/C=C2\C=Nc3ccccc32)c1O	-0.416
CCOC(=O)c1c(NC(=O)COC(=O)CCS(=O)(=O)c2ccc(C)cc2)sc(C)c1C	-0.58
Cn1c(=O)c2c(nc(CN3CCc4ccccc4C3)n2Cc2ccccc2F)n(C)c1=O	-0.677
O=C(Nc1ccc(CN2CCCCC2)cc1)c1ccc2c(c1)OCO2	0.288
Cn1cccc1-c1nc2ccc(NC(=O)c3ccco3)cc2[nH]1	-1.74
COc1ccc(NS(=O)(=O)c2ccc3oc(Nc4ccc5c(c4)OCCO5)nc3c2)cc1	-0.308

SMILES	z-score
COC(=O)c1ccc(N2C(=O)CC(SCCN)C2=O)cc1 (stereo unspecified)	-0.299
O=C(c1ccccc1)c1c[nH]c(C(=O)NCCCN2CCOCC2)c1	-0.228
Cc1ccc2nc(NC(=O)CCn3c(=O)sc4ccccc43)sc2c1	1.25
Cc1ccc(Oc2ccc(NC(=O)Cn3ccsc3=N)cc2)cc1	1.42
O=C(NNC(=S)NC1CCCCC1)c1cccc(S(=O)(=O)Nc2ccccc2Cl)c1	-0.537
CCOC(=O)c1[nH]n(-c2ccc(Cl)cc2)c(=O)c1C	-0.0836
C=CCSc1nc(=O)n2cccc(C)c2n1	0.0351
O=S(=O)(CCc1nnc(-c2ccc(Br)cc2)o1)c1ccc(Cl)cc1	0.21
CCC(=O)n1nc(-c2ccc(OC)cc2)nc1N	0.271
C=CCOC(=O)C1=C(C)OC(N)=C(C#N)C1c1ccoc1 (stereo unspecified)	0.081
Cc1cc(C)cc(-n2ccnc2SCC(=O)Nc2ccc3c(c2)OCCO3)c1	-0.332
CCN(CC)c1ccc(C(=O)c2ccccc2C(=O)O)c(O)c1	-0.136
CCN1C(=O)C2(/C(=C(\O)c3ccc4c(c3)OCCO4)C(=O)C(=O)N2CCCOC)c2ccccc21 (stereo unspecified)	-0.147
Cc1cccc(NC(=O)c2c(O)c3cccc4c3n(c2=O)CCC4)n1	-0.189
CCOc1ccc(N2CC(C(=O)NCc3ccc(F)cc3)CC2=O)cc1 (stereo unspecified)	0.23
Cc1cccc(Nc2ncccc2C(=O)O)c1C	-1.17
O=C(CSC1=NCCN1)NC12CC3CC(CC(C3)C1)C2	0.547
O=C(O)c1[nH]c2ccc(Cl)cc2c1CC(=O)N1CCN(C(=O)c2ccco2)CC1	-0.193
CC(C)(C)N1C(=O)c2ccc(C(=O)NCc3ccco3)cc2C1=O	-0.234
O=C1c2ccccc2C(=O)N1CCCCN(C(=O)c1cc2ccccc2oc1=O)c1ccc(Cl)cc1	0.0894
CCOC(=O)c1c(NC(=O)CSc2nc3ccccc3c(=O)n2-c2ccccc2)sc(C(C)=O)c1C	-0.27
CSc1nc2ccc(N3C(=O)C4CCCCC4C3=O)cc2s1 (stereo unspecified)	-0.207
CC(C)C(=O)Nc1nnc(SCC(=O)N2c3ccccc3CC2C)s1 (stereo unspecified)	1.43

SMILES	z-score
S=c1[nH]nc(-c2ccc(Cl)cc2Cl)n1Cc1ccccc1	1.5
OCc1csc(=Nc2ccccc2)n1-c1ccccc1	0.398
Cc1ccc(-n2nnc3c(=O)n(Cc4cccc(C)c4)cnc32)cc1	-0.451
CC(=O)Nc1ccc(S(=O)(=O)NCCc2csc(C)n2)cc1	0.339
CCOC(=O)c1c(NC(=S)Nc2ccccc2)sc(C)c1C	0.0775
O=C(c1c(O)c2ccccc2oc1=O)C1CCCCC1	-0.484
COc1ccc(C(=O)N2c3ccccc3C(=O)OC2c2ccc3c(c2)OCO3)cc1 (stereo unspecified)	-0.678
Cc1ccc(C2CC(c3cccc(C)c3)n3ncnc3N2)cc1 (stereo unspecified)	-0.668
CC1=NN(c2ccc(Br)cc2)C(=O)/C1=C/c1cccs1	0.0317
CCNC(=O)CN(c1ccccc1)S(=O)(=O)c1ccc(Cl)cc1	0.107
COc1cc(C(=O)N/N=C\c2ccccc2)c([N+](=O)[O-])c(OC)c1OC	-0.0608
Cc1cc(-c2ccco2)n(CC(=O)NCCN(C)C)n1	-0.444
CC1CC(=S)Nc2ccccc2S1 (stereo unspecified)	1.11
CN1OC(CC(=O)O)N(c2ccc(Cl)cc2)C1=O (stereo unspecified)	-1.27
NC(=O)CSc1nnc(-c2cccc(S(=O)(=O)N3CCOCC3)c2)n1C1CCCCCC1	-0.297
CC1=CC(C)(C)N(S(=O)(=O)c2ccc(C)cc2)c2cc(C)ccc21	-0.433
CC(C)(C)C(=O)Nc1cc2nn(-c3ccccc3)nc2cc1Cl	0.108
COC(=O)CCSc1cc([N+](=O)[O-])cc2c1c(C1OCCS1)nn2-c1ccccc1 (stereo unspecified)	-0.51
CN(C(=O)c1ccc2c(c1)SC1=NS(=O)(=O)CCN12)C(c1ccccc1)c1ccccc1	-0.352
Cc1ccccc1NC(=O)CSc1nc(COc2ccccc2)nc2ccccc12	0.264
Cc1nn(-c2ccccc2)c(N2CCCC2)c1/C=N/NC(=O)c1cccc(S(=O)(=O)Nc2ccc(Cl)cc2)c1	1.17
N#Cc1c(C(F)(F)F)cc(-c2ccccc2)[nH]c1=O	-0.331
COc1ccc(C(C)(C)C)cc1NC(=S)NCCN1CCOCC1	-0.293

SMILES	z-score
COc1ccccc1-c1nnc(SCC(=O)Nc2cc(C)on2)o1	-0.79
O=C(CN(c1ccccc1)S(=O)(=O)c1ccc(F)cc1)N1CCCCCC1	-0.00333
CCc1nnc(NC(=O)C2Cc3ccccc3CN2S(=O)(=O)c2cccs2)s1 (stereo unspecified)	0.0546
CC(c1ccccc1)n1c(SCC(=O)N2CC(=O)Nc3ccccc32)nc2ccccc2c1=O (stereo unspecified)	active: 4.74
Cc1nc(-c2c(-c3ccc(O)cc3O)noc2C(F)(F)F)cs1	-0.215
Cc1ccc(S(=O)(=O)NCC(=O)N(CC(=O)NC2CCCC2)c2ccc3c(c2)OCCO3)cc1	-0.641
CS(=O)(=O)N1CCC(C(=O)Nc2cc(C(F)(F)F)ccc2Cl)CC1	0.422
Cc1ccc(NC(=O)COC(=O)CNC(=O)c2cccc([N+](=O)[O-])c2)cc1S(=O)(=O)N1CCCCCC1	0.745
CS(=O)(=O)NCc1ccc(C(=O)NCc2ccccc2)cc1	-0.187
CCOc1ccc(-c2nnc(N)o2)cc1	0.278
COc1ccc(-c2nc(C#N)c(NCc3ccc(C)cc3)o2)cc1OC	-0.0882
CCOC(=O)CNS(=O)(=O)c1cc(-c2n[nH]c(=O)c3ccccc23)ccc1C	-1.16
Oc1ccc(/C=N/NC(=S)NCC2CCCO2)cc1 (stereo unspecified)	-0.149
CCOC(=O)c1cnc2ccc(C(=O)OC)cc2c1NCCc1ccc(OC)c(OC)c1	0.0244
CC1(C)NC(=O)N(CC(O)COc2ccccc2-c2ccccc2)C1=O (stereo unspecified)	-0.0843
Cc1ccc(S(=O)(=O)Nc2ccnc3ccccc23)cc1	-0.429
O=C(Nc1ccc(-c2nc3ccccc3o2)cc1)c1ccc2c(c1)OCO2	0.00429
COc1ccc(OCCCC(=O)Nc2cccnc2)cc1	0.364
Cc1ccc2c(c1)NC(=O)C(N1CCOCC1)(C(F)(F)F)O2 (stereo unspecified)	1.63
